Reference: PMC12264551 (Molecular Pharmacology, 2025)

Target: pituitary adenylate cyclase-activating polypeptide receptor type 1 (human) (UniProt P41586)

−LogEC50 of PACAP, maximum rate of cAMP accumulation (GloSensor), COS-7 cells transfected with PAC1R, vehicle (Fig. 6B) (−LogEC50 (EC50 in M)): 9.09 | −LogEC50 of PACAP, maximum rate of cAMP accumulation (GloSensor), COS-7 cells transfected with PAC1R, with ATP 1.5 mM (Fig. 6B) (−LogEC50 (EC50 in M)): 10
Substance: pituitary adenylate cyclase-activating peptide (PACAP-38)
